# The supplement of paper PMC6828730
# Where a name gives a salt, the structure may show the parent alone. This is one part of the list. Single values are uncertain, as repeats are few or missing.
# System: hiPSC-derived cardiomyocytes
# Assay: time to death of most cells in well after compound addition (days); higher = less cardiotoxic; extreme values may be limits of the assay
# Conditions: screen: 4; 10 µM
row,SMILES,time to death of most cells in well
1,O=C1NC(=O)/C(=C/c2ccc(-c3ccc(F)cc3O)o2)S1,> 7
2,"CCCS(=O)(=O)Nc1ccc(F)c(C(=O)c2c[nH]c3ncc(-c4ccc(Cl)cc4)cc23)c1F [Vemurafenib (PLX4032, RG7204)]",> 7
3,NC(=O)c1cccc(-c2cc(Nc3ccc(OC(F)(F)F)cc3)ncn2)c1,> 7
4,CCOC(=O)c1cnc2ccc(-c3cncc(NS(=O)(=O)c4ccccc4)c3)cn12,4
5,O=c1sn(-c2cccc3ccccc23)c(=O)n1Cc1ccccc1 [Tideglusib],> 7
6,O=C1Nc2ccc(I)cc2C1=Cc1cc(Br)c(O)c(Br)c1,> 7
7,O=C(NCc1cccc(O)c1)Nc1nc(-c2ccncc2)cs1,> 7
8,Nc1nccc(Oc2ccc(NC(=O)c3c[nH]cc(-c4ccc(F)cc4)c3=O)cc2F)c1Cl,> 7
9,COc1cccc(-c2cc(=O)c3ccccc3o2)c1N,> 7
10,Cc1c(Cn2c(C)nc3c(C(=O)O)cc(N4CCOCC4)cc32)cccc1C(F)(F)F,> 7
11,Cc1cnc(NC(=O)Nc2cc(Br)c(C)cc2OC[C@@H]2CNCCO2)cn1,> 7
12,O=C(Nc1ccc(OC(F)(F)F)cc1)c1sccc1NCc1ccnc2ccccc12,> 7
13,C[S+]([O-])c1ccc(-c2nc(-c3ccc(F)cc3)c(-c3ccncc3)[nH]2)cc1 (centres undefined),> 7
14,CN1CC[C@@H](c2c(O)cc(O)c3c(=O)cc(-c4ccccc4Cl)oc23)[C@@H]1CO,4.5
15,CC[C@@](C)(Nc1ccnc(-c2c[nH]c3ncccc23)n1)C(=O)NCC(F)(F)F [Decernotinib (VX-509)],> 7
16,Cc1ccc(NC(=O)c2ccc(CN3CCN(C)CC3)cc2)cc1Nc1nccc(-c2cccnc2)n1 [Imatinib Mesylate (STI571)],> 7
17,CCn1c(N)c(C(=O)NC)c(=O)c2ccc(C#CC(C)(O)COC)nc21 (centres undefined),> 7
18,Cc1ccc(NC(=O)c2cccc(C(C)(C)C#N)c2)cc1Nc1ccc2ncn(C)c(=O)c2c1,> 7
19,"O=C(c1ccc(F)c(F)c1Nc1ccc(I)cc1F)N1CC(O)([C@@H]2CCCCN2)C1 [Cobimetinib (GDC-0973, RG7420)]",6
20,COCCOc1ccc2c(c1)ncn2-c1ccc2cccc(N3CCC(N)CC3)c2n1,> 7
21,Cc1cc(C)c(/C=C2\C(=O)Nc3ccccc32)[nH]1 [Semaxanib (SU5416)],> 7
22,"CN1CCN(c2ccc3nc(-c4c(N)c5c(F)cccc5[nH]c4=O)[nH]c3c2)CC1 [Dovitinib (TKI-258, CHIR-258)]",> 7
23,COc1cc(C(=O)NC2CCN(C)CC2)ccc1Nc1ncc2c(n1)N(C1CCCC1)CC(F)(F)C(=O)N2C,5.5
24,Cc1nc(NC(=O)N2CCC[C@H]2C(N)=O)sc1-c1csc(C(C)(C)C)n1,> 7
